# Measurements as given in PubChem BioAssay AID2147 (National Center for Advancing Translational Sciences (NCATS), 2009).
# Values joined by “and” are separate entries in the source; they are usually repeats but may differ in a detail not shown here. Equal values may be shown once. Out of some 230,000 compounds screened, about 3,600 (1.6%) were called active. The shares of active, inactive and inconclusive entries below differ from those in the screen. Calls follow the shape of the dose curve; as a rule, active = well fitted inhibition curve with a large enough effect (not every such curve was filed as active); inconclusive = small, poorly fitted or top-dose-only effect, or another doubt; inactive = no such curve, though single readings can be large or run the other way. Potencies of inconclusive entries are doubtful fits and often do not repeat.
# Molecular target: Lysine-specific demethylase 4E (Homo sapiens) (UniProt B2RXH2)
# UniProt B2RXH2, sequence (B2RXH2 whole entry, looked up, the tested form may be a part): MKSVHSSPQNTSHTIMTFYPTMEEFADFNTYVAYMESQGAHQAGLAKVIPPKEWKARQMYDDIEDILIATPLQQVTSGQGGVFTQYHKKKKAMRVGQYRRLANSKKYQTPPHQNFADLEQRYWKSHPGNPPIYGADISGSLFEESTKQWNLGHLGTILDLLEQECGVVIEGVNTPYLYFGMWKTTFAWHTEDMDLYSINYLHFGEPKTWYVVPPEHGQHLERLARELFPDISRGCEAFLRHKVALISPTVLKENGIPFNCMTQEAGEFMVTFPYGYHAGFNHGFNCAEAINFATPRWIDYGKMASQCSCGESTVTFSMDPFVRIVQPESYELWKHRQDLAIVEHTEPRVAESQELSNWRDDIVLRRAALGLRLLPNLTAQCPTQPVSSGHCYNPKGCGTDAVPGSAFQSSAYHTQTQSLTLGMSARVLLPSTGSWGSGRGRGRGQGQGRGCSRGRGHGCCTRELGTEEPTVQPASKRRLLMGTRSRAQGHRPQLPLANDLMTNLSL
# Experiment: qHTS Assay for Inhibitors of Human Jumonji Domain Containing 2E (JMJD2E)
# Conditions: JMJD2E catalytic domain, FDH-coupled NADH fluorescence (FDH is formaldehyde dehydrogenase); series mostly up to 57.1 µM; activity change, negative = inhibition: at the top concentration
# Also: nearly all actives have a fitted effect of over 50% in size.
# 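For activity change, negative = inhibition in this document: 0% = wells with enzyme and -100% = buffer wells without enzyme.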
# Potency is read from the fitted curve at half-maximal effect; tags tell the direction and shape of the fitted curve.
Compound,Potency,"activity change, negative = inhibition"
O=C(COc1ccc(/C=N/NC(=O)c2cc3ccccc3o2)cc1Cl)Nc1ccccc1,"inconclusive: 28.2 µM [inhibitor, partial curve]",–
CCCCNc1nc(C)nc2c1nc(-c1ccccc1)n2CCCCN(CC)CC,"inconclusive: 22.4 µM [inhibitor, partial curve]",–
Nc1cc(=O)[nH]c(SCCOc2ccccc2)n1,"inconclusive: 39.8 µM [inhibitor, single point]",–
CCOP(=O)(O)c1ccccc1OCCOCCOc1ccccc1P(=O)(O)OCC,–,inactive: -4.31%
CC(C)CCC(O)(CCC(C)C)C(=O)NNc1ccccc1,–,inactive: -1.22%
COc1ccc2sc(C)[n+](C)c2c1,active: 20 µM,–
Cc1ccc(CNc2cnccn2)cc1,"inconclusive: 28.2 µM [inhibitor, partial curve]",–
CCN(CC)CCCN(C(=O)Cn1nnc(-c2ccc(OC)c(OC)c2)n1)C(C(=O)NC(C)(C)C)c1ccc(F)cc1 (stereo not given),–,inactive: -14.4%
CC(=O)N(CCC(Cc1ccccc1)c1ccc2c(c1)OCO2)Cc1ccc(Cl)cc1 (stereo not given),"inconclusive: 17.8 µM [inhibitor, single point]",–
Cc1ccc(S(=O)(=O)NCCCC(=O)C=[N+]=[N-])cc1,–,inactive: 3.89%
COc1cccc(OC)c1-c1nn2c(-c3cc(-c4ccccc4)n[nH]3)nnc2s1,"inconclusive: 39.8 µM [inhibitor, single point]",–
COc1cc2c(cc1OC)CN(C(=O)CSc1nnc3scc(-c4ccccc4)n13)CC2,"inconclusive: 28.2 µM [inhibitor, single point]",–
Cc1cccc(OCc2nnc(SCc3cc(=O)n4cc(Br)ccc4n3)o2)c1,"inconclusive: 31.6 µM [inhibitor, single point]",–
COc1ccc(C(=O)Nc2ccc3[nH]c(-c4cccc(OC)c4)cc(=O)c3c2)cc1,"inconclusive: 39.8 µM [inhibitor, single point]",–
Cc1onc(-c2ccccc2)c1C(=O)NC(=S)NNC(=O)c1ccc(O)cc1O,active: 11.2 µM,–
O=C(COC(=O)c1ccccn1)NCc1ccccc1Cl,–,inactive: -6.44%
O=C(Cn1c(=O)n(Cc2ccco2)c(=O)c2c3c(sc21)CCCCC3)Nc1ccccc1,"inconclusive: 25.1 µM [inhibitor, single point]",–
CN1C(=O)/C(=C/c2ccco2)SC1=Nc1ccc(N2CCOCC2)cc1,–,inactive: -0.591%
COc1ccc2cc(CCC(C)=O)ccc2c1,"inconclusive: 7.08 µM [inhibitor, single point]",–
CCOC(=O)CNC(=O)CSc1nc2cccnc2n1CC,"inconclusive: 39.8 µM [inhibitor, single point]",–
Cc1ccc(CC(=O)Nc2nc3c(s2)CCCC3)cc1,–,inactive: -2.85%
CSc1ncc(Cl)c(C(=O)Nc2ccccc2Cl)n1,"inconclusive: 25.1 µM [inhibitor, single point]",–
S=c1[nH]c2cc(Cl)ccc2s1,"inconclusive: 35.5 µM [inhibitor, single point]",–
CCCCC(=O)Nc1cccc(-c2nc3ncccc3o2)c1,"inconclusive: 28.2 µM [inhibitor, partial curve]",–

Compound,Potency,"activity change, negative = inhibition"
CC(C)(C)c1ccc(O)c(N=Cc2cc(Br)ccc2O)c1,active: 28.2 µM,–
CCOC(=O)c1ccc(NC(=O)CC2S/C(=N/N=C/c3c[nH]c4ccccc34)NC2=O)cc1 (stereo not given),"inconclusive: 31.6 µM [inhibitor, single point]",–
O=c1[nH]c2ccccc2nc1C(F)(F)F,"inconclusive: 35.5 µM [inhibitor, single point]",–
CCOC(=O)c1sc(NC(=O)c2c(C)nn(Cc3ccccc3)c2C)cc1C,"inconclusive: 39.8 µM [inhibitor, single point]",–
O=C(/C=C/c1ccccc1)N/C(=C/c1ccccc1)C(=O)NCCCO,"inconclusive: 7.08 µM [inhibitor, single point]",–
CCOc1ccc(/C=C2\SC(=S)N(C)C2=O)cc1OC,–,inactive: -5.52%
CC(=O)c1ccc(NC(=O)c2ccc(CSc3ccccc3)o2)cc1,–,inactive: -17.9%
O=C(Nc1ccc(-c2noc(-c3cccs3)n2)cc1)c1cccnc1,–,inactive: -22.7%
COc1ccc(C2CC(c3ccccc3)=NN2C(=O)COC(=O)c2cccnc2)cc1 (stereo not given),–,inactive: -7.17%
COc1cc(/C=C(\C#N)c2ccccn2)ccc1OCC(=O)Nc1cccc(C(F)(F)F)c1,"inconclusive: 10 µM [inhibitor, partial curve]",–
O=C(CNCCO)N1N=C(c2cccs2)CC1c1cccs1 (stereo not given),"inconclusive: 22.4 µM [inhibitor, partial curve]",–
Cc1cccc2cc(CN(Cc3nnnn3Cc3ccco3)C3CCCC3)c3nnnn3c12,"inconclusive: 31.6 µM [inhibitor, single point]",–
C=CC(C1=CC(=O)C=CC1=O)c1ccc(O)cc1 (stereo not given),"inconclusive: 3.55 µM [inhibitor, single point]",–
COc1ccccc1-c1nnc(N)s1,"inconclusive: 28.2 µM [inhibitor, partial curve]",–
COc1cc2c(cc1OC)C1=C(C#N)CN(C3CCCCC3)CN1CC2,"inconclusive: 14.1 µM [inhibitor, partial curve]",–
CCc1ccc2c(c1)c1nnc(NN)nc1n2CC,–,inactive: -3.62%
NS(=O)(=O)c1ccc(NC2=CC(c3ccc(F)cc3)N(c3ccc(S(N)(=O)=O)cc3)C2=O)cc1 (stereo not given),"inconclusive: 35.5 µM [inhibitor, single point]",–
O=C(CCCN1CC=C(n2c(=O)[nH]c3ccccc32)CC1)c1ccc(F)cc1,"inconclusive: 14.1 µM [inhibitor, partial curve, poor fit] and inconclusive: 28.2 µM [inhibitor, single point]",–
O=C(NCCc1ccccc1)C1CCC(CNc2c(N3CCCCC3)c(=O)c2=O)CC1 (stereo not given),–,inactive: -6.01%
CC1S/C(=N/N=C/c2cccc([N+](=O)[O-])c2)NC1=O (stereo not given),"inconclusive: 39.8 µM [inhibitor, single point]",–
CCc1ccccc1OCCCCN1CCCC1,"inconclusive: 39.8 µM [inhibitor, single point]",–
COc1cc2oc(-c3ccc(O)cc3)cc(=O)c2c(OC)c1O,"inconclusive: 39.8 µM [inhibitor, partial curve, poor fit]",–
Cc1oc(-c2ccc3c(c2)OCCO3)cc1C(=O)NCC(=O)O,"inconclusive: 35.5 µM [inhibitor, partial curve]",–
Cc1cc(C(=O)COC(=O)c2ccc[nH]c2=O)c(C)n1-c1ccccc1F,"inconclusive: 35.5 µM [inhibitor, single point]",–

Compound,Potency,"activity change, negative = inhibition"
Cc1cccc2cc(CN(Cc3nnnn3Cc3ccccc3)C3CCCC3)c(=O)[nH]c12,"inconclusive: 39.8 µM [inhibitor, single point]",–
COC(=O)c1cc(NC(=O)c2ccc(OC)cc2)c(=O)oc1C,–,inactive: -4.26%
O=C(Nc1ccc2nsnc2c1)N1CCCCCC1,"inconclusive: 35.5 µM [inhibitor, single point]",–
Cc1ccc(COc2ccsc2C(=O)NN)cc1,–,inactive: 8.1%
CCc1cc(C(=O)Cc2nc3ccccc3[nH]2)c(O)cc1O,"inconclusive: 25.1 µM [inhibitor, partial curve]",–
CC(=O)n1cc([C@@H]2C=C(C(=O)N3CCN(Cc4ccccc4)CC3)O[C@H](OCc3ccc(CO)cc3)C2)c2ccccc21,active: 20 µM,–
c1ccc2c(c1)Cc1cc3cc4c(cc3nc1-2)OCO4,"inconclusive: 25.1 µM [inhibitor, partial curve]",–
CC1(OC(=O)c2ccco2)C(=O)C2=COC(C3CC3)=CC2=C(Br)C1=O (stereo not given),–,inactive: -2.34%
COc1cc([N+](=O)[O-])cc(/C=N/NC(=O)C(C)Nc2cccc3ccccc23)c1O (stereo not given),active: 4.47 µM,–
COc1ccc(OC)c(/C=N/NC(=O)CN2CCSCC2)c1,"inconclusive: 31.6 µM [inhibitor, partial curve]",–
COc1ccc(/C=C(\C#N)C(=O)OCC(=O)Nc2ccc(-c3nc4ccc(C)cc4s3)cc2)cc1,"inconclusive: 20 µM [inhibitor, partial curve]",–
CN(C)C(=O)c1ccc(-c2nc(NCc3cccnc3)c3ccccc3n2)cc1,–,inactive: -12.6%
c1ccc(N/N=C(\Cc2nc3ccccc3[nH]2)c2ccccc2)cc1,"inconclusive: 39.8 µM [inhibitor, single point]",–
COc1ccc2nc3c(cc2c1)c(NC(=O)c1cccs1)nn3CC(C)C,"inconclusive: 28.2 µM [inhibitor, partial curve]",–
O=c1cc(CN2CCN(S(=O)(=O)c3ccc4c(c3)OCCO4)CC2)c2ccc(O)cc2o1,"inconclusive: 31.6 µM [inhibitor, partial curve]",–
CC1(C)Cc2c(c(N3CCCC3)nc3sc4c(N5CCN(CCO)CC5)ncnc4c23)CO1,"inconclusive: 28.2 µM [inhibitor, partial curve]",–
CC(C)CCNC(=O)C(c1ccco1)N(Cc1ccc(F)cc1)C(=O)c1snc(C(N)=O)c1N (stereo not given),"inconclusive: 25.1 µM [inhibitor, single point]",–
O=C(O)CCN1C(=O)c2ccc(NC(=O)Cc3ccc(Cl)cc3)cc2C1=O,"inconclusive: 31.6 µM [inhibitor, partial curve]",–
O=C(C1=C(O)C(=O)N(c2ncccn2)C1c1ccc(Cl)c(Cl)c1)c1ccco1 (stereo not given),"inconclusive: 39.8 µM [inhibitor, single point]",–
CCC(CC)=NNc1ccc(S(N)(=O)=O)cc1[N+](=O)[O-],–,inactive: -2.13%
CSc1ccc(/C=N\NC(=O)CNc2ccc(C)cc2)cc1,"inconclusive: 31.6 µM [inhibitor, single point]",–
Cc1cc(=O)[nH]c2c(C)c(N)ccc12,"inconclusive: 28.2 µM [inhibitor, partial curve]",–
